Out of some 310,000 compounds screened, about 14,000 (4.5%) showed an effect of 50% or more. The effect is printed as a negative number. This is one part of the list.
Biological target: human ether-à-go-go-related gene (hERG) potassium channel (human, UniProt Q12809)
Assay: primary screen, population patch clamp on CHO cells stably expressing hERG
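Note: peak tail current of the secondary pulse compared with the same well before compound.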

Chain of human ether-à-go-go-related gene (hERG) potassium channel (Q12809 whole entry, looked up): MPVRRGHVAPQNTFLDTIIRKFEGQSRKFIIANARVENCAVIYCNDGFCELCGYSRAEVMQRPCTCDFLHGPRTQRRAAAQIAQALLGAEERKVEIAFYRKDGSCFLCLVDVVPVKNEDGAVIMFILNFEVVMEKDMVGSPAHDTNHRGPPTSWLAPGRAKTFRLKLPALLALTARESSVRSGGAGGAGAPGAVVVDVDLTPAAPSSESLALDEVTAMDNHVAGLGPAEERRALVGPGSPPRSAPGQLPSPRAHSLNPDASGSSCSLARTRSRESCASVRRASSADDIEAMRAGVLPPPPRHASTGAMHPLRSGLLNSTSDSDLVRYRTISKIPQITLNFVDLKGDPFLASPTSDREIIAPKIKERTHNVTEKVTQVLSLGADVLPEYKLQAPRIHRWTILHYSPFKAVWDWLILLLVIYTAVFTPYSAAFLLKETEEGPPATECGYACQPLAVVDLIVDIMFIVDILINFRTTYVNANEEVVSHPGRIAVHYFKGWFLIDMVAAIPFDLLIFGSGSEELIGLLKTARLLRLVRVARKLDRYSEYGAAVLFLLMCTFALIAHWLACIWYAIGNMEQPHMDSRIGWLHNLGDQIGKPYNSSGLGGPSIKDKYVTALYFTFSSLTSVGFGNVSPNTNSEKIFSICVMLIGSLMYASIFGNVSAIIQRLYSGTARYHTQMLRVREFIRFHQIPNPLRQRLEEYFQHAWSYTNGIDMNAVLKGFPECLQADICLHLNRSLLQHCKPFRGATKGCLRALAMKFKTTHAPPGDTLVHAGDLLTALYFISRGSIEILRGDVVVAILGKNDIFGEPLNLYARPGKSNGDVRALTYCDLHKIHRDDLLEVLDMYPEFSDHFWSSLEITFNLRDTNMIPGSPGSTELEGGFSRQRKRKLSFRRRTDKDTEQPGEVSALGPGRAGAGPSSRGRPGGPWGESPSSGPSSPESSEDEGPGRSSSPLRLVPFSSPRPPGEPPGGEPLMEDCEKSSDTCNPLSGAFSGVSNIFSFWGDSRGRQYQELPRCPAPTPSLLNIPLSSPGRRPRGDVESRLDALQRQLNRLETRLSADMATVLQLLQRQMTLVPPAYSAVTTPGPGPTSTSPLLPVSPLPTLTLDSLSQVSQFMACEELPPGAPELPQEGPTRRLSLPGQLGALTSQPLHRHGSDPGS

| Compound | hERG current change (%, negative = inhibition) at 10uM [%] |
| --- | --- |
| COc1ccccc1OCc1nnc(SCC(=O)NCc2ccco2)n1-c1ccccc1 | -9.19 |
| C/C=C/c1ccc(OCCCCNCc2ccco2)c(OC)c1.O=C(O)C(=O)O | -72.9 |
| CC(=O)c1c(C)[nH]c(C(=O)OCC(=O)Nc2sc3c(c2C#N)CCC(C)C3)c1C (stereo not shown) | 17.7 |
| CC12CN3CCN(CC(C3)C1(O)CN1CCOCC1)C2 (stereo not shown) | -1.79 |
| CC(Sc1nc2ccccc2[nH]1)C(=O)Nc1ccc2c(c1)OCCO2 (stereo not shown) | 4.29 |
| CCN(C1CCCCC1)S(=O)(=O)c1cc2c3c(c1)CCN3C(=O)CC2 | -24.5 |
| COCCNC(=O)COc1ccc(C)cc1C | 10.4 |
| CC(=O)Nc1cccc(Nc2nc(-c3cccs3)nc3ccccc23)c1 | 13.7 |
| CCOC(=O)c1cc2c(=O)c3ccccc3oc2nc1C | 8.65 |
| CN(C)S(=O)(=O)c1cccc(-c2csc(N/N=C/c3ccco3)n2)c1 | -0.187 |
| CCCOc1ccccc1N/C(N)=N/c1nc(C)cc(C)n1 | -85.8 |
| Cc1ccc(Cl)cc1NC(=O)Cn1nc(-c2cccs2)ccc1=O | 10.5 |
| O=C(COC(=O)CNS(=O)(=O)/C=C/c1ccccc1)NC1CCS(=O)(=O)C1 (stereo not shown) | 17.6 |
| CC1CCC(NC(=O)Cn2ncc3ccccc32)CC1 (stereo not shown) | -2.6 |
| O=C(NC(=S)Nc1ccc(S(=O)(=O)N2CCCCCC2)cc1)c1cccs1 | -5.3 |
| COc1cccc(C(=O)C(C#N)=C(SC)SC)c1 | -12.4 |
| O=C(O/N=C1\CCCc2ccccc21)c1ccc(F)cc1 | -2.99 |
| Cc1cccc(NC(=S)N(C)Cc2cn(C)c3ccccc23)c1 | -7.49 |
| Cc1cc(C(=O)CCl)c(C)n1-c1cccc([N+](=O)[O-])c1 | 11.9 |
| O=C(Nc1ccc(Oc2ccccc2)cc1)C1CCN(c2c3c(nc4ncnn24)CCC3)CC1 | -55.6 |
| COc1cccc(C(=O)NC(Cc2ccccc2)c2ccc3c(c2)OCCCO3)c1 (stereo not shown) | 3.13 |
| CC1CCN(CC(=O)Nc2nccs2)CC1 | 13.6 |
| O=S(=O)(Nc1ncccc1O)c1ccc(Cl)cc1 | -15.2 |

| Compound | hERG current change (%, negative = inhibition) at 10uM [%] |
| --- | --- |
| O=C(O)CSc1nnc(-c2ccc(Cl)cc2Cl)n1Cc1ccccc1 | 21.7 |
| O=c1ccc(=O)n2n1CC(O)C2 | -13.1 |
| CCOCCCNC(=O)c1cn(C)c(=O)c2cc(OC)c(OC)cc12 | 4.88 |
| CCCSC1=N/C(=C\c2ccsc2)C(=O)S1 | 5.62 |
| Cc1cccc(CC(=O)Nc2c3c(nn2-c2cccc(Cl)c2)CS(=O)C3)c1 (stereo not shown) | 6.32 |
| COc1ccc(OC)c(-c2csc(NC(=O)CSc3ccccc3)n2)c1 | -6.44 |
| COc1ccc(S(=O)(=O)NCCN2CCOCC2)c(C)c1C | 0.476 |
| COCCn1c(N)c(S(=O)(=O)c2cccs2)c2nc3ccccc3nc21 | -23.1 |
| O=C(O)[C@H](O)[C@@H](O)C(=O)O | 6.59 |
| CCOC(=O)C1=C(C)OC(N)=C(C#N)C1c1cccs1 (stereo not shown) | 8.62 |
| Cc1cc(Cl)ccc1NC(=O)COC(=O)c1nc2nccc(C)n2n1 | -10.2 |
| CCOC(=O)C1CCN(C(=O)c2ccc3c(c2)C(=O)N(c2ccccc2C)C3=O)CC1 | -4.68 |
| Cc1cc(C)c2c(N)c(S(=O)c3ccc(C(C)(C)C)cc3)sc2n1 (stereo not shown) | 2.49 |
| CC(/C=N/n1c(-c2ccccc2)n[nH]c1=S)=C\c1ccco1 | 16.1 |
| CCOc1ccc(NC(=O)CSc2nc3nc4c(cc3c(=O)n2CC)COC(C)(C)C4)cc1 | 0.831 |
| Cn1nc(C(C)(C)C)c([N+](=O)[O-])c1C(=O)N1CCOCC1 | 17.3 |
| CC(C)CNC(=O)NC(=O)COc1ccc(C=O)cc1 | -2.33 |
| CCCCOc1ccc(C(=O)N/C(=C/C=C/c2ccccc2)C(=O)O)cc1 | 19.8 |
| CC(=O)c1cccc(NC(=O)CSc2nc(N3CCCCC3)nc(N3CCCCC3)n2)c1 | 20.8 |
| Cc1onc(-c2ccccc2Cl)c1C(=O)N1CCN(Cc2ccc3c(c2)OCO3)CC1 | -4.61 |
| CN(Cc1ccc(C#CCCO)cc1)CC1CCCN(CCc2ccc(Cl)cc2)C1 (stereo not shown) | -70.9 |
| O=C(COc1ccc(Br)cc1)N1CCc2ccccc2C1 | -22.2 |
| C=CCn1c(=O)c2ccccc2n2c(SCc3c(C(=O)OCC)oc4ccccc34)nnc12 | -56.1 |

| Compound | hERG current change (%, negative = inhibition) at 10uM [%] |
| --- | --- |
| CCN(CCO)Cc1csc2ccc(Br)cc12.Cl | -19.3 |
| CC(=O)Nc1cccc(NC(=O)CSc2nc(=O)n(Cc3ccncc3)c3c2CCC3)c1 | -0.0125 |
| CCOc1ccc(NC(=O)C2(c3ccc(OC)c(OC)c3)CCCC2)cc1 | -21.8 |
| COc1ccc(C(=O)NC(=S)NCc2ccccc2)cc1OC | 19.2 |
| CCOC(=O)c1nnn(-c2nonc2-n2cccc2)c1CN1CCOCC1 | -18.2 |
| Cc1cccc(NC(=O)N2C3CCCC2CC(NC(=O)C2CC2)C3)c1 (stereo not shown) | 0.607 |
| Cc1ccc(-n2ncc3c2CCCC3NC(=O)CCCN2CCCCC2=O)cc1C (stereo not shown) | -15.8 |
| N#CCc1ccc(Oc2ccc([N+](=O)[O-])cn2)cc1 | -11 |
| CNC[C@H](CC1CCCCC1)NC[C@H](NCCC1CCCC1)[C@H](C)O | -13 |
| C=CCn1nc([N+](=O)[O-])nc1Sc1cccc2cccnc12 | -2.55 |
| COCc1c(C(=O)OCC(=O)NCCN2C(=O)CSC2=O)oc2ccccc12 | 11.1 |
| CCN(C(=S)Nc1ccc(C(C)=O)cc1)C1CCCCC1 | 3.5 |
| CC1CCc2nn(CC(=O)Nc3ccc(F)cc3F)cc2C1 (stereo not shown) | -2.61 |
| CCCS(=O)(=O)N1CCCC(C(=O)N2CCN(c3ccccn3)CC2)C1 (stereo not shown) | 2.52 |
| CC(=O)Nc1cccc(-c2nc3ccccc3[nH]2)c1 | 1.87 |
| CCOc1cc(CN2CCN(C(=O)c3ccco3)CC2)ccc1OC | -28.7 |
| COc1cc(C2NC(=O)CCC2[N+](=O)[O-])cc(OC)c1OC (stereo not shown) | 29.6 |
| COc1ccc(-c2nc(-c3cccs3)no2)cc1 | -0.668 |
| O=C(CCCCCn1c(=S)[nH]c2ccc(N3CCOCC3)cc2c1=O)NCCc1ccccc1 | 0.587 |
| COC(=O)C1C(=O)NCC1c1ccc(C)cc1 (stereo not shown) | 16.9 |
| Cc1ccc(-n2c(C)cc(=O)cc2C)c(C)c1 | -0.0171 |
| Clc1ccc(CSc2nnc(CNc3cccc(Cl)c3)o2)cc1 | 3.8 |
| NC(=O)c1ccc(NC(=O)COC(=O)CCSc2ccccc2)cc1 | 1.01 |

| Compound | hERG current change (%, negative = inhibition) at 10uM [%] |
| --- | --- |
| Cc1cc(C)cc(OCC(=O)OCCN2C(=O)c3ccccc3C2=O)c1 | -3.21 |
| CSCCC(NC(=O)COc1ccccc1)C(=O)NCc1cccs1 (stereo not shown) | -36.7 |
| CCOc1ccc(OCC)c(NC(=O)CSCCc2ccccn2)c1 | -4.89 |
| COc1cc(/C=N/n2nnnc2N)ccc1OC(C)C | 3.75 |
| O=S(=O)(N/N=C/c1cccc(OC2CSC2)c1)c1ccccc1 | -17.2 |
| COCCN(C(=S)Nc1ccc(OC)cc1)C(C)c1cccs1 (stereo not shown) | -18.2 |
| Cc1ccc(NC(=O)CSc2nnc(-c3ccccc3C)o2)cc1C | 8.78 |
| O=C(COC(=O)c1ccc(F)cc1)Nc1ccc(Cl)cn1 | 7.4 |
| O=C(C1=C[C@@H](C2CCCCC2)C[C@@H](OCCCCO)O1)N1CCOCC1 | 0.668 |
| C=CCNC(=O)CSc1nc2cc(C(=O)OCC)ccc2n1CC | 2.83 |
| CC1=NN(c2ccc(C)cc2C)C(=O)C1C(c1cccc(O)c1)C1C(=O)N(c2ccc(C)cc2C)N=C1C (stereo not shown) | -6.45 |
| O=C(Cc1cccs1)NCCCc1ccccc1 | -0.581 |
| Cc1cccc(NC(=O)COc2ccc3oc4c(c3c2)CCCC4)n1 | 4.11 |
| O=C(/C=C/c1ccc2c(c1)OCO2)Nc1cc(S(=O)(=O)N2CCOCC2)ccc1N1CCOCC1 | -55.9 |
| Cc1c(C(=O)Nc2ccccc2C(=O)N2CCOCC2)cccc1[N+](=O)[O-] | -6.92 |
| CCCCNC(=O)N(C)c1nc2ccccc2s1 | -8.43 |
| Cc1cccc(/C=N/n2c(-c3ccccn3)n[nH]c2=S)c1 | 19.2 |
| CCOC(=O)c1ccccc1NC(=O)CSc1nnc(COc2ccccc2)n1CC | -38.5 |
| COc1cc(C(C[N+](=O)[O-])c2c(-c3ccccc3)cc3ccccn23)cc(OC)c1OC (stereo not shown) | 17.2 |
| O=C(NC1CCCCCCC1)C1CCC(CNc2c(N3CCCC3)c(=O)c2=O)CC1 (stereo not shown) | 6.33 |
| Cc1nn(-c2ccccc2)c(N)c1C1(O)C(=O)N(C)c2ccccc21 (stereo not shown) | 14.4 |
| Cc1cccc(OCc2nnc(SCC(=O)N(C(C)C)C(C)C)n2Cc2ccco2)c1C | -43.9 |

Reference: publication PMC4336329 (PLoS ONE, 2015)
